# B1: MpaH’ (Penicillium brevicompactum) (protein)
# chain: MSTEKFTITEHLVPGSHIREYPGSTVNQEDVLKIHVKQYTPKREGPVPDDAITFIATHGVGLPKELYEPLWDELLDQASGFHIRAIWMADVASMNQSGIHNEDKLSMDCSWMDHARDLLLMINHFRDQMPRPLVGIGHSFGGNIITNLAYLHPRLFTTLLLLDPLIQLSPPSLGFGTDAPSAINYTLWRDDVWPSREVAIRANRAIMQGMDPRCLDRMTKHFFRDLPTPLYPDVEAIKALFGTTADSTTTPVTLTTPKYHELVAQIRQNFNARDPKTGRIEVPRDTHADMDPLVAYIPLYRPEPRSTFRRLETLRPSCLWVIAGATFLNIDEIREGVKICGSGIGGSGGVPDGRVREVVLPGFGHLMPFQEVKTVAETCIVWLQQEMDRFRQTERQWKEDRDGKSHLAVEENWYKVLKPIPSGRKKRNDKGKL
# How the values were obtained:
# [1] = substrate: CC(C)(COP(=O)(O)OP(=O)(O)OC[C@H]1O[C@@H](n2cnc3c(N)ncnc32)[C@H](O)[C@@H]1OP(=O)(O)O)[C@@H](O)C(=O)NCCC(=O)NCCSC(=O)CC(=O)O; test: purified protein, by the assay type
# [2] = substrate: CCCCCCCCCC(=O)Nc1ncnc2c1ncn2[C@@H]1O[C@H](COP(=O)(O)OP(=O)(O)OCC(C)(C)[C@@H](O)C(=O)NCCC(=O)NCCS)[C@@H](OP(=O)(O)O)[C@H]1O; test: purified protein, by the assay type
# [3] = substrate: CCCCC/C=C\C/C=C\C/C=C\C/C=C\CCCC(=O)SCCNC(=O)CCNC(=O)[C@H](O)C(C)(C)COP(=O)(O)OP(=O)(O)OC[C@H]1O[C@@H](n2cnc3c(N)ncnc32)[C@H](O)[C@@H]1OP(=O)(O)O; test: purified protein, by the assay type
# [4] = substrate: CCCCCCCCCCCCCCCC(=O)SCCNC(=O)CCNC(=O)[C@H](O)C(C)(C)COP(=O)(O)OP(=O)(O)OC[C@H]1O[C@@H](n2cnc3c(N)ncnc32)[C@H](O)[C@@H]1OP(=O)(O)O; test: purified protein, by the assay type
# [5] = substrate: CC(C)C(=O)SCCNC(=O)CCNC(=O)[C@H](O)C(C)(C)COP(=O)(O)OP(=O)(O)OC[C@H]1O[C@@H](n2cnc3c(N)ncnc32)[C@H](O)[C@@H]1OP(=O)(O)O; test: purified protein, by the assay type
# [6] = substrate: CCC(=O)SCCNC(=O)CCNC(=O)[C@H](O)C(C)(C)COP(=O)(O)OP(=O)(O)OC[C@H]1O[C@@H](n2cnc3c(N)ncnc32)[C@H](O)[C@@H]1OP(=O)(O)O; test: purified protein, by the assay type
# [7] = substrate: CC(C)(COP(=O)(O)OP(=O)(O)OC[C@H]1O[C@@H](n2cnc3c(N)ncnc32)[C@H](O)[C@@H]1OP(=O)(O)O)[C@@H](O)C(=O)NCCC(=O)NCCSC(=O)c1ccccc1; test: purified protein, by the assay type
# [8] = substrate: CC(C)CC(=O)SCCNC(=O)CCNC(=O)[C@H](O)C(C)(C)COP(=O)(O)OP(=O)(O)OC[C@H]1O[C@@H](n2cnc3c(N)ncnc32)[C@H](O)[C@@H]1OP(=O)(O)O; test: purified protein, by the assay type
# [9] = substrate: CCCCCCCCCCCC(=O)SCCNC(=O)CCNC(=O)[C@H](O)C(C)(C)COP(=O)(O)OP(=O)(O)OC[C@H]1O[C@@H](n2cnc3c(N)ncnc32)[C@H](O)[C@@H]1OP(=O)(O)O; test: purified protein, by the assay type
# [10] = substrate: CC(=O)SCCNC(=O)CCNC(=O)[C@H](O)C(C)(C)COP(=O)(O)OP(=O)(O)OC[C@H]1O[C@@H](n2cnc3c(N)ncnc32)[C@H](O)[C@@H]1OP(=O)(O)O; test: purified protein, by the assay type
# [11] = substrate: C/C(=C\Cc1c(O)c(C)c2c(c1O)C(=O)OC2)CCC(=O)SCCNC(=O)CCNC(=O)[C@H](O)C(C)(C)COP(=O)(O)OP(=O)(O)OC[C@H]1O[C@@H](n2cnc3c(N)ncnc32)[C@H](O)[C@@H]1OP(=O)(O)O; test: purified protein; conditions: CoA thioester hydrolysis
# [12] = substrate: COc1c(C)c2c(c(O)c1C/C=C(\C)CCC(=O)SCCNC(=O)CCNC(=O)[C@H](O)C(C)(C)COP(=O)(O)OP(=O)(O)OC[C@H]1O[C@@H](n3cnc4c(N)ncnc43)[C@H](O)[C@@H]1OP(=O)(O)O)C(=O)OC2; test: purified protein; conditions: CoA thioester hydrolysis
protein,measurement,setting,value
B1,Km,[1],76.37 ± 52.11 µM
same,kcat,[1],0.216 ± 0.0216 s⁻¹
same,kcat/Km,[1],2820 M⁻¹ s⁻¹
same,Km,[2],143 ± 52.66 µM
same,kcat,[2],2.27 ± 0.155 s⁻¹
same,kcat/Km,[2],15900 M⁻¹ s⁻¹
same,Km,[3],316.6 ± 101.8 µM
same,kcat,[3],0.789 ± 0.0645 s⁻¹
same,kcat/Km,[3],2500 M⁻¹ s⁻¹
same,Km,[4],577 ± 189.20 µM
same,kcat,[4],0.387 ± 0.0429 s⁻¹
same,kcat/Km,[4],667 M⁻¹ s⁻¹
same,Km,[5],201.9 ± 45.03 µM
same,kcat,[5],0.128 ± 0.006 s⁻¹
same,kcat/Km,[5],633 M⁻¹ s⁻¹
same,Km,[6],351.5 ± 130.9 µM
same,kcat,[6],0.41 ± 0.0407 s⁻¹
same,kcat/Km,[6],1170 M⁻¹ s⁻¹
same,Km,[7],217.9 ± 79.63 µM
same,kcat,[7],0.0649 ± 0.00513 s⁻¹
same,kcat/Km,[7],300 M⁻¹ s⁻¹
same,Km,[8],780.8 ± 372.8 µM
same,kcat,[8],0.0953 ± 0.0178 s⁻¹
same,kcat/Km,[8],117 M⁻¹ s⁻¹
same,Km,[9],260.2 ± 79.56 µM
same,kcat,[9],1.65 ± 0.118 s⁻¹
same,kcat/Km,[9],6350 M⁻¹ s⁻¹
same,Km,[10],722.3 ± 213.9 µM
same,kcat,[10],0.916 ± 0.102 s⁻¹
same,kcat/Km,[10],1270 M⁻¹ s⁻¹
same,Km,[11],382.6 ± 153.4 µM
same,kcat,[11],73.97 ± 8.238 s⁻¹
same,Km,[12],117.5 ± 32.93 µM
same,kcat,[12],159.6 ± 6.487 s⁻¹

# — article doi:10.1101/524025v1
